Source: the supplement of paper PMC10037445
Over roughly 2,900 compounds, “IRF Lucia reporter activity, fold change vs agonist alone” has its median near 0.9; the highest 2% begin near 2.8. The list shows a part of the results.

Columns and labels:
RAW-Dual [1] = assay: IRF Lucia reporter activity, fold change vs agonist alone; cytotoxicity flag (confluency mask): not cytotoxic; higher = enhanced IRF activity
In short: (§1)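 Cytotoxic wells were those whose IncuCyte confluency was below 70% of agonist controls in both mask sets. The cells were RAW-Dual macrophages at 50,000 cells/well in DMEM on 384-well plates, dosed with 50 nL of library stock by pin tool, stimulated with a PRR agonist 1 h later, and kept at 37 °C, 5% CO2 for 20 hours. IRF and NF-κB reporter activity, as fold change over agonist-alone wells, came from supernatant read by QuantiLuc luminescence and QuantiBlue absorbance, respectively.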

RAW-Dual [2] = assay: IRF Lucia reporter activity, fold change vs agonist alone; higher = enhanced IRF activity; settings: agonist: MPLA (TLR4) […]
In short: as §1

RAW-Dual [3] = assay: IRF Lucia reporter activity, fold change vs agonist alone; cytotoxicity flag (confluency mask): cytotoxic (confluency <70% of control); higher = enhanced IRF activity
In short: as §1

[4] = agonist: 3'3'-cGAMP (STING) 10 ug/mL
[5] = library stock concentration (final ~1000-fold dilution): 10 mM, cytotoxicity flag (confluency mask): not cytotoxic

Cc1[nH]c(C=C2C(=O)Nc3ccc(F)cc32)c(C)c1C(=O)NCCN1CCCC1 (library stock concentration (final ~1000-fold dilution): 2 mM)
IRF Lucia reporter activity (RAW-Dual [1]; [4]): 0.0313 | IRF Lucia reporter activity (RAW-Dual [1]; agonist: LPS (TLR4) 0.1 ug/mL): 0.194

Cc1[nH]c(C=C2C(=O)Nc3ccc(F)cc32)c(C)c1C(=O)NCCN1CCCC1
IRF Lucia reporter activity (RAW-Dual [2]; library stock concentration (final ~1000-fold dilution): 2 mM, cytotoxicity flag (confluency mask): not cytotoxic): 0.869

Cl.Cl.Cn1cc(CNCC2CCN(c3ncc(C(=O)NO)cn3)CC2)c2ccccc21 (library stock concentration (final ~1000-fold dilution): 10 mM)
IRF Lucia reporter activity (RAW-Dual [3]; [4]): 0.0444 | IRF Lucia reporter activity (RAW-Dual [3]; agonist: LPS (TLR4) 0.1 ug/mL): 0.955

Cl.Cl.Cn1cc(CNCC2CCN(c3ncc(C(=O)NO)cn3)CC2)c2ccccc21
IRF Lucia reporter activity (RAW-Dual [2]; library stock concentration (final ~1000-fold dilution): 10 mM, cytotoxicity flag (confluency mask): cytotoxic (confluency <70% of control)): 0.626

CCc1ccc(Cc2ccc3c(c2)C2(OC3)OC(CO)C(O)C(O)C2O)cc1.O (stereo unspecified) (library stock concentration (final ~1000-fold dilution): 10 mM)
IRF Lucia reporter activity (RAW-Dual [1]; [4]): 1.17 | IRF Lucia reporter activity (RAW-Dual [1]; agonist: LPS (TLR4) 0.1 ug/mL): 1.15

Oc1ccc(Nc2nc(-c3ccc(Cl)cc3)cs2)cc1 (library stock concentration (final ~1000-fold dilution): 10 mM)
IRF Lucia reporter activity (RAW-Dual [1]; [4]): 0.0079 | IRF Lucia reporter activity (RAW-Dual [1]; agonist: LPS (TLR4) 0.1 ug/mL): 0.288

Oc1ccc(Nc2nc(-c3ccc(Cl)cc3)cs2)cc1
IRF Lucia reporter activity (RAW-Dual [2]; [5]): 0.203

N#Cc1ccc2[nH]c(O)c(-c3ccc(CN4CCOCC4)cn3)c2c1 (library stock concentration (final ~1000-fold dilution): 10 mM)
IRF Lucia reporter activity (RAW-Dual [1]; [4]): 0.996 | IRF Lucia reporter activity (RAW-Dual [1]; agonist: LPS (TLR4) 0.1 ug/mL): 0.903

N#Cc1ccc2[nH]c(O)c(-c3ccc(CN4CCOCC4)cn3)c2c1
IRF Lucia reporter activity (RAW-Dual [2]; [5]): 1.01

Nc1nc(NC2CC2)c2ncn(C3C=CC(CO)C3)c2n1.Nc1nc(NC2CC2)c2ncn(C3C=CC(CO)C3)c2n1.O=S(=O)(O)O (stereo unspecified)
IRF Lucia reporter activity (RAW-Dual [2]; library stock concentration (final ~1000-fold dilution): 10 mM water, cytotoxicity flag (confluency mask): not cytotoxic): 1.44

Nc1nc(NC2CC2)c2ncn(C3C=CC(CO)C3)c2n1.Nc1nc(NC2CC2)c2ncn(C3C=CC(CO)C3)c2n1.O=S(=O)(O)O (stereo unspecified) (library stock concentration (final ~1000-fold dilution): 10 mM water)
IRF Lucia reporter activity (RAW-Dual [1]; [4]): 1.4 | IRF Lucia reporter activity (RAW-Dual [1]; agonist: LPS (TLR4) 0.1 ug/mL): 0.91

CCNC1CN(CCCOC)S(=O)(=O)c2sc(S(N)(=O)=O)cc21 (stereo unspecified) (library stock concentration (final ~1000-fold dilution): 10 mM)
IRF Lucia reporter activity (RAW-Dual [1]; [4]): 1.04 | IRF Lucia reporter activity (RAW-Dual [1]; agonist: LPS (TLR4) 0.1 ug/mL): 0.83

CCNC1CN(CCCOC)S(=O)(=O)c2sc(S(N)(=O)=O)cc21 (stereo unspecified)
IRF Lucia reporter activity (RAW-Dual [2]; [5]): 0.969

CNC(=O)c1c(C)oc2cc(Oc3ncnc4cc(OC)c(OC)cc34)ccc12 (library stock concentration (final ~1000-fold dilution): 10 mM)
IRF Lucia reporter activity (RAW-Dual [1]; [4]): 1.02 | IRF Lucia reporter activity (RAW-Dual [1]; agonist: LPS (TLR4) 0.1 ug/mL): 1.07

CNC(=O)c1c(C)oc2cc(Oc3ncnc4cc(OC)c(OC)cc34)ccc12
IRF Lucia reporter activity (RAW-Dual [2]; [5]): 1.1

COc1cc2ncnc(Nc3ccc(Cl)cc3F)c2cc1OC (library stock concentration (final ~1000-fold dilution): 10 mM)
IRF Lucia reporter activity (RAW-Dual [1]; [4]): 0.591 | IRF Lucia reporter activity (RAW-Dual [1]; agonist: LPS (TLR4) 0.1 ug/mL): 0.556

COc1cc2ncnc(Nc3ccc(Cl)cc3F)c2cc1OC
IRF Lucia reporter activity (RAW-Dual [2]; [5]): 0.746
